The supplement of paper PMC3334620
In all, about 33,000 sequences were measured (“E-score (-0.5 to 0.5)”: median about -0.054, highest 2% from about 0.35 on). This is one part of the list.

What follows are sequences tested against T1, Stb5 (UniProt P38699) (assay: PBM E-score (8-mer binding enrichment) (E-score (-0.5 to 0.5)); higher = stronger / more preferred TF binding; most listed sequences are background and not binding sites). Details: protein concentration: 200 nM; construct: GST-full length.
T1 sequence: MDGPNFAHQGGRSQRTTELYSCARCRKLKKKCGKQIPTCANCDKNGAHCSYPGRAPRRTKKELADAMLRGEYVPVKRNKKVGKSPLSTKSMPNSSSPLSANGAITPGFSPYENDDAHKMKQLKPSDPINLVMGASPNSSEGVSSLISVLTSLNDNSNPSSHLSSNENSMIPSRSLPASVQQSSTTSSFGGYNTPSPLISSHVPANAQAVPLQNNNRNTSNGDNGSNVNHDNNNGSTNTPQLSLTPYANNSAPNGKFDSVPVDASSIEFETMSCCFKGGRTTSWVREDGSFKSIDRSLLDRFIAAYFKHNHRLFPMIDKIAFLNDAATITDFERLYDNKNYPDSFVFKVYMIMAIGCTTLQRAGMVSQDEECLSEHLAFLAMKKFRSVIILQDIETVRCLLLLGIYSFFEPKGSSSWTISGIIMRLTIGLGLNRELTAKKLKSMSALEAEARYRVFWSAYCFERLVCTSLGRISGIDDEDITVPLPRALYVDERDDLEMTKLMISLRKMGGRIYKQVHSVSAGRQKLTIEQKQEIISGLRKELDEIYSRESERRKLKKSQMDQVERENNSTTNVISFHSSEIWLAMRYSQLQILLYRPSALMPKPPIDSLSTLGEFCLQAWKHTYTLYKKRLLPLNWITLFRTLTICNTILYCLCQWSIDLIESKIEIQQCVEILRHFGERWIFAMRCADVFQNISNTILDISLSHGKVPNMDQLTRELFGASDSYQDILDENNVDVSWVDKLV
Outline: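 Full-length yeast transcription factors or their DNA-binding domains, GST-tagged and expressed with PURExpress, were applied at about 100-200 nM to universal all-10-mer Agilent arrays. These arrays had been made double-stranded by primer extension on fresh or once-stripped slides. Detection used fluorescent anti-GST, normalisation used masliner, and E-scores for ungapped eight-base words pooled with reverse complements came from the Universal PBM Analysis Suite.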

Sequence | PBM E-score
CGCTCCGC | 0.164
TAGGCTAA | -0.174
GTAGTGAA | -0.131
CACGCGAA | -0.207
AATCTGCA | -0.273
CACAAGTG | -0.211
ACGGTTAA | 0.00553
ATGATCGG | 0.297
GTGTATGA | -0.0134
ATTTATGA | 0.0478
ATCCTTTA | 0.127
AGAGGTAT | -0.189
TGTGAGAA | -0.0988
ACGGGATC | 0.21
TCCACCCA | -0.0819
GAGAGTCA | -0.12
ATGTAGTA | -0.0458
ATCAGCTC | -0.0577
GCACTGAA | -0.133
TAAGTCTA | -0.0952
CTAACCCA | -0.185
CTTTAGGA | -0.0789
TGTTGAAA | -0.0848
CGGCCCCC | 0.0221
ATGAGCTA | -0.22

Sequence | PBM E-score
AAGCTGTG | -0.187
GGGATTTA | 0.351
GTTAAATA | 0.0556
ACCATCAT | -0.288
GAACGGCA | 0.281
CAGCACGA | -0.2
CACGTAAC | -0.0753
AGTATGTG | -0.0762
GCCGCTAC | 0.39
CCATAACA | 0.0384
AGTCTTAA | -0.0773
ATTGGGTC | -0.0644
GTTGAGTA | -0.00225
CTAGCTAA | -0.168
ACCGCTCG | 0.357
AGCGCGAC | -0.139
CCCAGAAC | -0.156
ATTTCTAA | -0.0632
AATCCTAC | -0.172
ATTCGGCA | 0.179
CATCAAGC | -0.106
AGTCCAGC | -0.223
AACCTTTG | -0.0639
AAGCGTCA | -0.32
GGTTAACC | -0.0109

Sequence | PBM E-score
GGCCGCCC | 0.253
CGATTCCA | -0.0241
AACATTCC | -0.0795
CGAGGTTC | -0.0789
AGGTTACC | 0.108
ATGAAACC | 0.0892
AGTCCCAA | -0.121
CGGAGTTC | 0.326
AATTGTGA | -0.21
AGTCATAC | -0.143
ACCCTACG | -0.0552
ACCGGGAT | 0.323
CGTTCCGA | 0.00452
GCACATCC | -0.0283
ATCCTCTC | -0.286
GGGAGGCA | 0.111
GTCGCAAA | -0.0343
CGTACCCC | 0.00585
ACAAAGAT | -0.329
AGGCTGTA | -0.226
ACATTATC | 0.0703
CTAGGCAG | -0.0998
AATTCCTA | -0.258
GAGTCACA | -0.0801
ACATGGAA | -0.0514

Sequence | PBM E-score
ACACCGGT | 0.421
CCACAACA | -0.182
CGACCAGC | 0.128
ATGTACAA | 0.0239
ACGGTACC | 0.283
ACAATATA | 0.135
CTATGCAA | -0.111
CTCCAGTA | -0.0368
CGCTCCTC | -0.0314
TAACCAGA | -0.245
ACTGCCAT | -0.249
ACTCTGCT | -0.301
CCACACTC | -0.0515
ATGCGAGC | -0.184
ATACAAAA | -0.135
ACACTTTC | -0.101
GCACGTAC | -0.152
CTCTAAGC | 0.0585
GCTGTGTA | -0.146
ACAAAGAC | -0.00636
CCCCCTCA | -0.286
CATAGGGA | -0.0738
CCGAATAG | 0.139
ACCTAGGC | -0.185
CATCAGTC | 0.132

Sequence | PBM E-score
ACGTGGAT | -0.137
ACGCAGTG | -0.148
ACCCCAAC | -0.113
TTCCCGAA | 0.241
TCCTACGA | -0.186
AGTGGGGA | 0.0889
AAGCTCTC | -0.155
AGTTACTC | -0.0433
ATATTTTG | 0.118
ACTGTGTA | -0.163
ACGCTATA | -0.0975
AAATTGAC | 0.0873
CCTTTTAG | -0.196
ATATATAA | 0.194
ATGTCTCA | -0.224
CCCGTATA | 0.195
CTGCTGGC | -0.124
AAATATTT | -0.0738
ACCGTCCG | 0.317
CCACTCTA | -0.147
GACACTCA | 0.0419
AATTTTCA | -0.105
ACAGCTTG | -0.235
ACTCCACT | -0.23
CTGCCAGA | -0.09

Sequence | PBM E-score
CTTTCACC | 0.273
TAATGCGA | 0.0246
CGCAGCTA | 0.281
ATATACCG | 0.34
AGTACACC | -0.013
CCTAAGCC | 0.0181
CAAACCAG | -0.206
CCCGAACC | 0.144
GGTAACAC | 0.111
CAGTGGTC | -0.143
CCGGTGCG | 0.314
GGTCCTGA | -0.0742
CAGTCACG | -0.06
CCTTATAC | -0.156
CCTGGTAG | -0.154
CACACGCA | -0.206
CACACCGG | 0.327
GTTACGAA | -0.115
ACGTGCAA | -0.134
GAAACCAC | -0.0862
CAGCCCGC | 0.141
CAAACACG | -0.114
GACTAGAC | -0.181
GCCGTTCC | 0.202
TGCGCTAA | 0.0986

Sequence | PBM E-score
ATTGGCAG | -0.0617
CAGCAAAG | -0.103
TATCTTGA | -0.0906
ACGCTGCC | -0.0282
GTCTCGAA | -0.238
AGTCTCTC | -0.239
AAACAATA | 0.0798
CTGTAAGC | -0.131
CTGTGGAA | -0.104
CAAGATCG | -0.018
GGTGCATA | 0.0547
GCTAATCC | 0.145
CACTGGGC | -0.0629
ATGTAATA | 0.099
GCGGACCA | 0.293
TTGAGAAA | 0.0733
CTTGAACA | -0.0254
CAAGAGCC | 0.109
AACGTCGC | -0.101
AAGCCGGA | 0.299
AATCCGGT | 0.321
CGATGGCG | 0.129
